# The full ranking holds about 33,000 sequences; the median of “E-score (-0.5 to 0.5)” is about -0.032, and the highest 2% start at about 0.36. This is one part of the list.
# Target: T1, Sko1 (UniProt Q02100)
# T1 sequence: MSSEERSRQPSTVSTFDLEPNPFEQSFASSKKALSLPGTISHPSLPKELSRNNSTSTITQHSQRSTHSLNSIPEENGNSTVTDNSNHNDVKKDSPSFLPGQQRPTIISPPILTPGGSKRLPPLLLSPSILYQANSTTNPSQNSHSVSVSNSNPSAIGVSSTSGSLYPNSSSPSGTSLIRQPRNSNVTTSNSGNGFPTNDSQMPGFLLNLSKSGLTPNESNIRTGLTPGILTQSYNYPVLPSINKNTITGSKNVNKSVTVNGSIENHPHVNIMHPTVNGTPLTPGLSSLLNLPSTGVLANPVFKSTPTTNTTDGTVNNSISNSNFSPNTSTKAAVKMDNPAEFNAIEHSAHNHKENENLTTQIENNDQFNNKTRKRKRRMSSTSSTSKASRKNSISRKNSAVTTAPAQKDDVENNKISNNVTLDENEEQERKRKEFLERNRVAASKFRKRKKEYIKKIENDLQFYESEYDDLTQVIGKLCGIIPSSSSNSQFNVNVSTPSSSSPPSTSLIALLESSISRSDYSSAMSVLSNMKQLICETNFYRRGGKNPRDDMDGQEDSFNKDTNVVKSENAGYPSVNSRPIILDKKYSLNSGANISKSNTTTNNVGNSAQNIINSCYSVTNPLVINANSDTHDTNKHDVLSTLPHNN
# Experiment: PBM E-score (8-mer binding enrichment) (E-score (-0.5 to 0.5)); higher = stronger / more preferred TF binding; most listed sequences are background and not binding sites
# Conditions: protein concentration: 200 nM; construct: GST-full length
# Procedure, shortened: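 PURExpress in vitro transcription/translation supplied GST-tagged yeast transcription factors, either full-length or DNA-binding domain. Applied at about 100-200 nM to universal all-10-mer Agilent arrays double-stranded by primer extension, the bound protein was detected with fluorescent anti-GST. E-scores, modified Wilcoxon-Mann-Whitney statistics, were given by the Universal PBM Analysis Suite to ungapped eight-base words pooled with their reverse complements after masliner normalisation.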
row,Sequence,PBM E-score
1,CGGCAATC,-0.174
2,TAGTAACA,0.183
3,AAATTGTA,0.0214
4,GCAGCTTA,-0.0732
5,ACGAGTTA,0.183
6,CCCCAAGA,-0.0628
7,CAGCCGTC,-0.15
8,AATGCCTC,-0.0545
9,ATTGTATG,-0.0348
10,CGCTATTC,0.0711
11,ATACCGCC,-0.228
12,ATCTGGCC,-0.0936
13,GTCTTGTA,-0.0618
14,TAATTGCA,0.158
15,GTCTAGAC,-0.196
16,CCTCCCAC,-0.168
17,TAATGGTA,0.0858
18,GTAAGTAC,0.189
19,CTTATGCA,0.114
20,ACCAAATC,0.00737
21,AGATTACC,0.108
22,CTTCGGCA,-0.161
23,AGGTTCTC,-0.23
24,GCCTGCTA,-0.246
25,AGTGAGGC,0.0161

row,Sequence,PBM E-score
1,CCACCCAC,-0.106
2,AGCACGAA,0.169
3,TCAAACGA,0.102
4,GACATATA,0.198
5,TACTGCGA,0.0205
6,CACGGACA,-0.119
7,ATTCATTC,0.216
8,CATTTTAC,0.281
9,AGGCCCCT,-0.378
10,AGCCATAA,0.143
11,AGACATCC,-0.0595
12,GAGACTTA,-0.131
13,CTCCATGA,0.0278
14,AAGCGTAA,0.241
15,ACGTGCAG,0.32
16,GTTATGAA,0.139
17,CAATTGAA,-0.109
18,CCGTTGCA,-0.177
19,ACCTACCG,-0.0842
20,CGCTGAAG,-0.189
21,GAGTCATC,-0.0308
22,AACTCCTT,-0.0253
23,CTGGATGC,-0.36
24,GCCACCCA,-0.329
25,ATCAATTG,0.102

row,Sequence,PBM E-score
1,ACCTCGCG,0.0189
2,CTCTTTGA,-0.065
3,ATGAAGGA,0.0878
4,CCTGATGA,0.162
5,AAGAATCG,0.179
6,GACAACGC,0.0984
7,AGCGTCAG,0.154
8,ACTTCGTA,0.212
9,ACTTACCC,-0.0438
10,AAGTGAGC,0.0444
11,TAAGCCGA,-0.02
12,CCCACACA,-0.218
13,ACGACCTG,-0.123
14,GGGGATGA,-0.17
15,GTAAGCTA,0.24
16,ATAAACCC,0.118
17,CAAACAAC,0.205
18,ACTTCTGA,0.0203
19,ACTACCTC,-0.0329
20,CACAAAAA,0.136
21,ATATGAAG,0.0536
22,ATGTGCAA,0.0773
23,CACTAGCC,0.0142
24,CATACCAG,-0.0928
25,GCTGGTTA,0.064

row,Sequence,PBM E-score
1,AAAGTTAG,0.18
2,ATGTCGCC,-0.104
3,GCGCCCCA,-0.0711
4,AACAGCTC,-0.0959
5,AGGAAATG,0.0666
6,TAAGTAAA,0.0578
7,ACGATTAT,0.184
8,AGCAGGTG,-0.0269
9,AACCGCCT,-0.247
10,CAGTTGCG,0.0907
11,AAGCTAAA,0.11
12,ACAGTTTG,-0.171
13,ATTTTGAG,0.112
14,CGGTCACC,-0.13
15,AGCGGGCA,-0.296
16,AGCCTATC,-0.0948
17,CAAGCCAG,-0.0729
18,CAAATGGA,-0.0346
19,ACTGTACG,0.157
20,AATCCACC,-0.136
21,ATAACGTG,0.377
22,ACACTGGT,-0.0931
23,CCGTACAA,0.0588
24,CGAGCCAG,-0.113
25,GCTCCATA,-0.0829

row,Sequence,PBM E-score
1,CGTGCTCC,-0.164
2,ACCCCGGG,-0.309
3,ATTATCGG,-0.0667
4,GGGAGTCA,-0.165
5,GACAGAAC,0.0194
6,ACCCCATG,-0.0741
7,CTGCAAGA,-0.119
8,ATAACCAT,0.057
9,TTCCGGAA,-0.0873
10,CAAAGAAA,0.179
11,AAATCCGT,0.119
12,GACTCTCC,-0.2
13,GACTGACA,0.0348
14,AGAGTCCA,-0.123
15,ATTCGGTG,0.0911
16,AAGCTACT,-0.00041
17,ACCTTGCG,0.0137
18,CTACCGGC,-0.309
19,CAATGAGC,-0.0908
20,AAGTCATT,0.0592
21,AGAGGTAG,-0.178
22,TATAAAAA,0.224
23,CGAGCCCA,-0.0666
24,AGTCGCCC,-0.143
25,ACCGCTAC,-0.179

row,Sequence,PBM E-score
1,CGGCGTCC,-0.173
2,AGTAGTTA,-0.129
3,GTAAAACA,0.217
4,CTCGAGAA,-0.113
5,CGCTATGA,0.144
6,ATGCTAGG,-0.135
7,AGTCGGAT,-0.0432
8,CGGCATCA,0.0468
9,GCTGGTAA,-0.0739
10,ATAAGGAT,0.188
11,CGTAATGA,0.461
12,CTTGAAGA,-0.132
13,ACAGCTTA,-0.00668
14,ACTATACA,0.0602
15,TAATATGA,0.264
16,CGAGGGTA,-0.185
17,TGATCCAA,0.0166
18,AAGTGGCC,-0.217
19,ATTGCGTA,0.472
20,CATCCGCG,0.0392
21,ATAGCTAT,0.0838
22,AAGTACTA,0.182
23,ACGCGTCA,0.436
24,GTCTGACA,0.0436
25,GAATCCGC,-0.309

row,Sequence,PBM E-score
1,TAACATCA,0.367
2,ACCCAGGG,-0.21
3,CCGACCGC,-0.311
4,TAGGACGA,-0.084
5,AGACCGTG,-0.116
6,ACGTGAGC,0.264
7,GCATCGAA,-0.147
8,AATCTACT,0.0253
9,AGCTCGCC,-0.257
10,GTCTTGCA,-0.0164
11,GCATCACA,0.16
12,GCCTACAC,0.0309
13,CTGCGGGA,-0.29
14,ATTCGTGG,0.185
15,TGCGTGAA,0.227
16,CGAAACAG,0.0515
17,AACACCGA,-0.0775
18,AAGGGGTA,-0.265
19,CAGCTGTC,-0.101
20,AGGTGCAT,-0.0658
21,GCTACCAC,-0.101
22,AACTCTCC,-0.175

# — the supplement of paper PMC3334620
